Source: PubChem BioAssay AID1745845 (National Center for Advancing Translational Sciences (NCATS), 2022)
In all, about 360,000 compounds went through this assay and about 2,600 (0.72%) were called active. Inconclusive results, whose numbers are uncertain, are shown with a selection of clear calls. The call rests on the fitted dose curve; in most records, active means well fitted inhibition curve with a large enough effect; inconclusive means small, poorly fitted or top-dose-only effect; inactive means no such curve, though single readings can be large or run the other way. A potency beside an inconclusive call is a rough fit, not a confirmed value.

experiment: Primary qHTS for Inhibitors of ATXN expression; conditions: HEK-293 ATXN2-luciferase reporter, luminescence, 24 h; series mostly up to 57 µM; further: nearly all actives have a fitted effect of over 55% in size
In short: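 qHTS (up to 57 uM final) was run with 24 h compound exposure of reporter cells at 37 °C. Each well was multiplexed: SteadyGlo luminescence measured ATXN2-luciferase expression after a fluorogenic Gly-Phe-AFC viability readout (25 uM final).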
Potency means the concentration at half of the fitted maximal effect; tags describe the fitted curve by direction and shape.

| Compound | Potency |
| --- | --- |
| O=C(N/N=C/c1cccc([N+](=O)[O-])c1O)c1cccs1 | inconclusive: 28.2 µM [inhibitor, partial curve, poor fit] |
| Cc1cc(NC(=O)c2cccnc2)ccc1NC(=O)c1ccco1 | inactive |
| O=C(N[C@H]1CCC(=O)N(CCSc2ccc(Br)cc2)CC1)OCc1ccccc1 | inconclusive: 17.8 µM [inhibitor, partial curve] |
| COCCNC(=O)C1(C)CCN(C(=O)c2ccc(C(F)(F)F)nc2C)C1 (stereo not given) | inactive |
| O=c1cc(-c2ccccc2Cl)oc2c([N+](=O)[O-])c(O)cc(O)c12 | inconclusive: 39.8 µM [inhibitor, single point] |
| O=C(c1ccoc1)N1CCN(c2cc(-c3ccco3)nc3cc(-c4ccccc4)nn23)CC1 | active: 25.1 µM |
| COc1ccc(-c2csc3ncnc(N4CCN(c5ccccc5O)CC4)c23)cc1 | inactive |
| COc1ccccc1OCC(=O)Nc1nonc1NC(=O)COc1ccccc1OC | inactive |
| COc1ccc(C[C@H]2CN3C(=NC[C@@H]3Cc3ccccc3)N2CCNC(=O)CCC2CCCCC2)cc1 | inconclusive: 28.2 µM [inhibitor, single point] |
| Cn1c(=O)[nH]c(=O)c2c1nc([N+](=O)[O-])n2Cc1ccccc1 | inconclusive: 5.62 µM [inhibitor, full curve, poor fit] |
| COc1ccccc1-c1nnc(SCC(=O)c2ccc(Cl)cc2)n1-c1ccccc1 | inconclusive: 39.8 µM [inhibitor, single point] |
| C/C(=N\Nc1ccc2nncn2n1)c1ccccn1 | inconclusive: 2.99 µM [inhibitor, full curve] |
| COc1ccc(NC(c2ccccc2)c2ccncc2)cc1 (stereo not given) | inconclusive: 31.6 µM [inhibitor, partial curve, poor fit] |
| Cc1c(C)c2ccc(OCc3ccc(C(=O)O)o3)c(C)c2oc1=O | inconclusive: 20 µM [inhibitor, partial curve] |
| CCOc1ccc(OCC)c(NC(=O)c2nnn(CC(=O)Nc3ccc(C)cc3C)c2N)c1 | inactive |
| CSc1cccc(NC(=O)CN2C(=O)COc3ccc(Cl)cc32)c1 | inconclusive: 10 µM [inhibitor, partial curve] |
| CC(C)=CCC1C(=O)N(c2ccccc2)N(c2ccccc2)C1=O | inconclusive: 11.2 µM [inhibitor, partial curve, poor fit] |
| CC(=O)Nc1ccc(CN2CCN(C3CCCC3)C(CCO)C2)cc1 (stereo not given) | inactive |
| N=c1ccn(CC(=O)c2ccc(-c3ccccc3)cc2)cc1 | active: 2.99 µM |
| O=C(NC1CCCC1)c1cnn2c(C(F)(F)F)cc(-c3ccc4c(c3)OCO4)nc12 | inconclusive: 39.8 µM [inhibitor, single point] |
